# Data reported in PMC11960675, “3-Deazaguanosine inhibits SARS-CoV-2 viral replication and reduces the risk of COVID-19 pneumonia in hamster” (iScience, 2025).
# Test system: SARS-CoV-2
# Experiment: Syrian hamster model of COVID-19, intraperitoneal treatment
# Settings: 2 dpi; IP; 2 at 110 mg/kg/day qd, Molnupiravir 220 mg/kg/day bid
row,Compound,Viral titer in lungs versus vehicle controls
1,"Nc1cc2c(ncn2[C@@H]2O[C@H](CO)[C@@H](O)[C@H]2O)c(=O)[nH]1 [Compound 2, 3-Deazaguanosine]",lower than that in those of vehicle controls
2,"CC(C)C(=O)OC[C@H]1O[C@@H](n2ccc(NO)nc2=O)[C@H](O)[C@@H]1O [Molnupiravir, reference compound]",lower than that in those of vehicle controls
